# In PubChem BioAssay AID686978 (National Center for Advancing Translational Sciences (NCATS), 2013):
# Where “and” joins values, the source holds several entries; their conditions need not be identical. Equal values may be shown once. The campaign covered roughly 420,000 compounds. About 64,000 (15%) were called active. The shares of active, inactive and inconclusive entries below differ from those in the screen. The call rests on the fitted dose curve; in most records, active means well fitted inhibition curve with a large enough effect; inconclusive means small, poorly fitted or top-dose-only effect; inactive means flat fitted curve, though single readings scatter. Potencies beside an inconclusive call are fits to weak or partial responses and may not hold up.
# Test: qHTS for Inhibitors of human tyrosyl-DNA phosphodiesterase 1 (TDP1): qHTS in cells in absence of CPT; further: nearly all actives have a fitted effect of over 55% in size
# Settings: DT40 Tdp1-/- hTDP1 cells, no CPT, ATP luminescence, 48 h; activity change, negative = growth inhibition: at 46.2 µM (top of the series) unless noted
# Summary of the method: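 Readout: luminescence from CellTiter-Glo after 30 min in the dark at RT. Cells: DT40 Tdp1-/- with stable hTDP1, 400/well. Exposure: compounds alone, ≥48 hr, 37 °C.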
# On the % scale 0 is the no-effect control and ±100 the full control effect; potency means the concentration at half of the fitted maximal effect; tags describe the fitted curve by direction and shape.
SMILES,Potency,"activity change, negative = growth inhibition"
Cc1ccc(OCc2ccc(C(=O)Nc3c(C)nn(Cc4c(F)c(F)c(F)c(F)c4F)c3C)o2)c([N+](=O)[O-])c1,active: 18.4 µM,–
Cc1ccccc1NC(=O)Cn1c(=O)n(CCc2ccccc2)c(=O)c2ccccc21,"inconclusive: 8.2 µM [inhibitor, partial curve]",–
COCc1ccc(C(=O)NC2CCCN(Cc3ccccc3F)C2)o1 (centres undefined),–,inactive: -3.97%
COc1ccc(-c2nnc(SCC(=O)c3cc(C)n(Cc4cccs4)c3C)o2)cc1,–,inactive: -18.5%
Cc1c(CC(C)C)nc(N)c(C#N)c1-c1ccccc1,"inconclusive: 20.6 µM [inhibitor, partial curve]",–
CCn1ccnc1CNC(=O)C1CCC(=O)N(Cc2ccccc2F)C1 (centres undefined),–,inactive: -15.6%
COc1cccc(/C=C/C(=O)OCC(=O)NC2CC2)c1,–,inactive: 14.1%
COc1ccc(OC)c(Nc2sc(C(=O)c3ccccc3)c(N)c2S(=O)(=O)c2ccccc2)c1,"inconclusive: 16.4 µM [inhibitor, single point]",–
COc1ccc(C(=O)COC(=O)c2cc(-c3cccs3)nc3ccccc23)cc1,"inconclusive: 29.1 µM [inhibitor, single point]",–
CCCNC(=O)N(C)C[C@H]1Oc2ncc(Br)cc2C(=O)N([C@H](C)CO)C[C@H]1C,–,inactive: -22.1%
O=C(Cn1ncc2c([nH]c3ccccc32)c1=O)NCCCN1CCN(c2ccccc2)CC1,"inconclusive: 29.1 µM [inhibitor, single point]",–
O=c1oc2ccccc2c(N2CCN(c3ccc(F)cc3)CC2)c1CN1CCCC1,active: 16.4 µM,–
Cc1cccc(N2CCN(S(=O)(=O)c3cc(C(=O)Nc4ccc(Oc5ccccc5)cc4)ccc3F)CC2)c1C,"inconclusive: 10.3 µM [inhibitor, partial curve]",–
O=C(O)c1ccc(N/N=C/c2cn(Cc3ccc(F)cc3)c3ccccc23)cc1,"inconclusive: 29.1 µM [inhibitor, single point]",–
CCCNC(=O)C1(C)CCCN(Cc2c3ccccc3nn2C)C1 (centres undefined),active: 20.6 µM,–
CCCCn1cc(S(=O)(=O)c2cc(C)ccc2C)c(=O)c2cc(F)c(F)cc21,"inconclusive: 25.9 µM [inhibitor, single point]",–
COc1cc(C2c3cc4c(cc3C3OC(=O)C2C3CO)OCO4)cc(OC)c1OC (centres undefined),active: 0.0164 µM,–
Cc1oc(-c2ccccc2F)nc1CN1CCC(C(=O)NCCc2ccccc2)CC1,"inconclusive: 20.6 µM [inhibitor, single point]",–
N#C/C(=C\N1CCOCC1)c1ccccc1,–,inactive: -7.69%
COc1ccc(CNC(=O)C(C)n2nc(C)c3c(C)n(-c4ccccc4)nc3c2=O)c(OC)c1 (centres undefined),"inconclusive: 20.6 µM [inhibitor, single point] and inconclusive: 29.1 µM [inhibitor, single point]",–
CCc1nn2c(=O)cc(COC(=O)c3ccccc3NC(=O)COc3ccc(C)c(C)c3)nc2s1,active: 6.51 µM,–
COc1cc(CC(=O)OCC(=O)Nc2cccc([N+](=O)[O-])c2)cc(OC)c1OC,–,inactive: -18.4%

SMILES,Potency,"activity change, negative = growth inhibition"
CC(=O)N1CC2(CC(=O)OC(C)C)CN(C(C)=O)CC(CC(=O)OC(C)C)(C1)C2=O,–,inactive: 4.21%
CCC1Sc2ccc(S(=O)(=O)N3CCN(c4ccccc4)CC3)cc2NC1=O (centres undefined),"inconclusive: 23.1 µM [inhibitor, single point]",–
Oc1cccc2ccc(/C=C/c3ccccc3Br)nc12,active: 5.8 µM,–
Brc1ccc(-c2noc(COc3ccc4ccccc4c3)n2)o1,–,inconclusive: -30.7% [inhibitor]
Cc1ccc(CNC(=O)Cc2csc3ccccc23)cc1,–,inactive: -12.9%
Cc1c(Cl)cccc1-n1ncc(C(=O)NC2CCCCC2)c1C1CCN(C(=O)OC(C)(C)C)CC1,"inconclusive: 29.1 µM [inhibitor, single point]",–
CCOC(=O)c1cccc(NC(=O)c2oc3c(c2C)-c2nn(CC)cc2CC3)c1,"inconclusive: 29.1 µM [inhibitor, partial curve, poor fit]",–
CCNc1nc(NCC)n2c(SCC(=O)N(CC)C3CCCCC3)nnc2n1,"inconclusive: 29.1 µM [inhibitor, single point]",–
COc1ccc(-n2c(SCC(=O)Nc3ccc(C(N)=O)cc3)nc3ccccc3c2=O)cc1OC,–,inactive: -25.4%
COC(=O)c1cc(-c2ccc(F)cc2)n(-c2ccccc2)n1,"inconclusive: 16.4 µM [inhibitor, single point]",–
O=S(=O)(c1ccc(SCc2c(F)cccc2Cl)nc1)N1CCCC1,"inconclusive: 29.1 µM [inhibitor, single point]",–
O=S(=O)(c1ccccc1)N1CCN(CCOc2ccc(F)cc2)CC1,"inconclusive: 18.4 µM [inhibitor, partial curve, poor fit]",–
CCCCN1C(=O)c2ccc(C(=O)Nc3ccc(S(=O)(=O)N(C)C)cc3)cc2C1=O,–,inconclusive: -35.2% [inhibitor]
COCCN(Cc1cc2cc(C)ccc2n2nnnc12)C(=S)Nc1cccc(C)c1,"inconclusive: 32.6 µM [inhibitor, single point]",–
C(=NOCc1ccccc1)c1cccnc1,–,inactive: -26%
COCOCCn1cc(CN2CCS(=O)(=O)N(Cc3ccc(-c4ccncc4)cc3)C(CC(C)C)C2=O)nn1 (centres undefined),"inconclusive: 20.6 µM [inhibitor, single point]",–
Cc1cccc(C)c1NC(=O)C(c1ccccc1)n1c(-c2ccccc2)nc2ccccc21 (centres undefined),"inconclusive: 18.4 µM [inhibitor, single point]",–
CCOC(=O)c1scc(-c2ccccc2)c1S(=O)(=O)Nc1cc(Cl)c(OC)cc1OC,active: 14.6 µM,–
O=C(NNc1ccccn1)C(=O)NNS(=O)(=O)c1ccc(Cl)cc1,"inconclusive: 29.1 µM [inhibitor, single point]",–
CC1CCc2c(sc(NC(=O)C3c4ccccc4Oc4ccccc43)c2C(=O)OC(C)C)C1 (centres undefined),–,inactive: -0.224%
CCc1nc2ccc(C(=O)NCCc3c[nH]c4ccccc34)cn2c1N(C)Cc1nccn1C,–,inactive: -63.7%
CCc1ccc(C(=O)NN(C(=O)c2ccc(CC)cc2)C(C)(C)C)cc1,"inconclusive: 23.1 µM [inhibitor, single point]",–
